Results: PubChem BioAssay AID540317 (National Center for Advancing Translational Sciences (NCATS), 2011)
The campaign covered roughly 390,000 compounds. About 2,200 (0.56%) were called active. Inconclusive means that the source gave no clear call. Such entries were picked first, then a sample of the others. The call rests on the fitted dose curve; in most records, active means well fitted inhibition curve with a large enough effect; inconclusive means small, poorly fitted or top-dose-only effect; inactive means no such curve, though single readings can be large or run the other way. Where the call is inconclusive, the potency comes from a doubtful curve fit.

Biological target: Chromobox protein homolog 1 (Homo sapiens) (UniProt P83916)
UniProt P83916, sequence (P83916 whole entry, looked up): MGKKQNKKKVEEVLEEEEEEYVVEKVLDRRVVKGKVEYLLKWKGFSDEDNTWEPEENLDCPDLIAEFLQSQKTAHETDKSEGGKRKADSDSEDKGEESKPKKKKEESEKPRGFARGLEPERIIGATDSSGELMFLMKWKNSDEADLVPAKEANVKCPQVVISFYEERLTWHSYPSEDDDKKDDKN
Experiment: HTS for Inhibitors of HP1-beta Chromodomain Interactions with Methylated Histone Tails; further: nearly all actives have a fitted effect of over 70% in size
Conditions: AlphaScreen HP1-beta / biotin-H3K9me3 peptide binding; series mostly up to 114 µM; activity change, negative = inhibition: at the top concentration
Outline: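 HP1-beta protein (50 nM final) preincubated 30 min at room temperature with biotinylated H3(1-18)K9me3 peptide (50 nM) in PBS pH 7.4, 0.01% Tween-20, then compound added for 30 min. AlphaScreen streptavidin donor/nickel chelate acceptor beads (10 ug/mL final), 30 min dark, luminescence read.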
Potency means the concentration at half of the fitted maximal effect; tags describe the fitted curve by direction and shape.

| Structure (SMILES) | Potency | activity change, negative = inhibition |
| --- | --- | --- |
| CCOC(=O)c1c(/N=C/c2ccc(OC)cc2O)sc2c1CCN(C)C2 | inconclusive: 14.1 µM [inhibitor, full curve, poor fit] |  |
| CCCN1CCN(CC(O)COC(c2ccc(OC)cc2)c2ccc(OC)cc2)CC1 (centres undefined) | inconclusive: 79.4 µM [inhibitor, partial curve] |  |
| COc1ccc(CNC(=O)[C@H](C)NC(=O)C2CC(=O)N(c3ccc(OC)cc3)C2)cc1 (some centres undefined) |  | inactive: 17.9% |
| CCCCNc1cc(NC2CCCCC2)c2c3c(onc13)-c1ccccc1C2=O | inconclusive: 8.91 µM [inhibitor, full curve, poor fit] |  |
| CC(=O)c1ccc(N2CCN(S(=O)(=O)c3c(C)[nH]c(C)c3C(=O)N3CCCC3)CC2)cc1 |  | inactive: 3.6% |
| COc1cc2nc(CN(C)Cc3ccc(C(C)(C)C)cc3)[nH]c(=O)c2cc1OC | inconclusive: 35.5 µM [inhibitor, single point] |  |
| CC(C)c1ccc(S(=O)(=O)N2CCN(CCC(=O)Nc3ccc(N(C)C)cc3)CC2)cc1 | inconclusive: 31.6 µM [inhibitor, single point] |  |
| CC(=O)N1CCN(c2ccc(NCc3cccc4ccccc34)cc2)CC1 | inconclusive: 15.8 µM [inhibitor, full curve] |  |
| CC(=O)Nc1ccc(S(=O)(=O)N2CCN(Cc3cccs3)CC2)cc1 | active: 31.6 µM |  |
| CCN(Cc1ccccc1)C(=O)C1CCN(CC2CC=CCC2)CC1 (centres undefined) | inconclusive: 56.2 µM [inhibitor, partial curve, poor fit] |  |
| CNC(=S)N/N=C/c1ccc(-c2ccc(C(=O)O)cc2)o1 | inconclusive: 56.2 µM [inhibitor, single point] |  |
| CC(NC(=O)CN(C)CC(=O)Nc1cccc(F)c1)c1ccccc1 (centres undefined) | inconclusive: 89.1 µM [inhibitor, single point] |  |
| O=C1C2=C(Nc3ccccc3SC2c2ccc(Cl)c(Cl)c2)c2ccccc21 (centres undefined) | inconclusive: 10 µM [inhibitor, full curve, poor fit] |  |
| COc1cccc(N2C(=O)C(CC(=O)Nc3ccc(F)cc3)N(CCC3=CCCCC3)C2=O)c1 (centres undefined) |  | inactive: 30.6% |
| COc1cccc(-c2nnc(NC(=O)c3ccc(Cl)s3)o2)c1 |  | inactive: 51.9% |
| COc1ccc2c(c1)CC/C(=C/c1ccco1)C2=O | inconclusive: 56.2 µM [inhibitor, single point] |  |
| CC(=O)N1CCN(S(=O)(=O)c2cccc(C(=O)Nc3ccc4c(c3)CCC4)c2)CC1 |  | inactive: 27.6% |
| O=C(CN1CCN(c2ccc(O)cc2)CC1)Nc1cc(S(=O)(=O)N2CCCC2)ccc1Cl | inconclusive: 70.8 µM [inhibitor, single point] |  |
| CC1CCN(CC(=O)Nc2ccc(Cl)cc2[N+](=O)[O-])CC1 | inconclusive: 15.8 µM [inhibitor, full curve] |  |
| Cc1cccc2cc3c(nc12)SC(=NCC1CCCO1)N(Cc1ccco1)C3 (centres undefined) | inconclusive: 17.8 µM [inhibitor, partial curve] |  |
| CCOc1ccc(OCCCN(C)C)cc1 | inconclusive: 17.8 µM [inhibitor, full curve] |  |
| Cc1cccn2c(Nc3ccc4c(c3)OCCO4)c(-c3ccc(Br)o3)nc12 | inconclusive: 14.1 µM [inhibitor, full curve, poor fit] |  |

| Structure (SMILES) | Potency | activity change, negative = inhibition |
| --- | --- | --- |
| Cc1ccccc1S(=O)(=O)Nc1cccnc1 |  | inactive: 54.9% |
| COc1cccc(C(=O)c2sc(Nc3ccc(F)c(Cl)c3)nc2N)c1 |  | inactive: 13.3% |
| Clc1cccc(OCCCCN2CCCCC2)c1 | inconclusive: 44.7 µM [inhibitor, partial curve] |  |
| COc1cccc(-c2ncc3ccccc3c2COC(=O)c2ccc(F)cc2)c1 |  | inactive: 32.1% |
| COc1ccc2c(c1)-c1nc(/N=C/c3ccc(O)c(OC)c3)sc1CC2 | inconclusive: 39.8 µM [inhibitor, partial curve] |  |
| CC(O)CN(Cc1ccc(Cl)cc1)CC(C)O (centres undefined) | inconclusive: 79.4 µM [inhibitor, partial curve] |  |
| Cc1cc(S(=O)(=O)n2ccnc2C(C)C)cc([N+](=O)[O-])c1C |  | inactive: 22.6% |
| COc1ccc(CNc2nc(-c3ccco3)nn2C(=O)CC(C)C)cc1 |  | inactive: 20.7% |
| CCCN1CCCc2cc(CN)ccc21 | inconclusive: 44.7 µM [inhibitor, partial curve] |  |
| CCOc1ccc(-c2nc(S(=O)(=O)c3ccccc3)c(N3CCC(C(N)=O)CC3)o2)cc1 | inconclusive: 50.1 µM [inhibitor, partial curve] |  |
| CCc1ccccc1NC(=O)/C(=C/c1ccco1)c1ccccc1 | inconclusive: 44.7 µM [inhibitor, partial curve, poor fit] |  |
| Cc1ccc(C(=O)Nc2ccccc2C(=O)N2CCN(c3ccccc3)CC2)cc1 |  | inactive: 12.2% |
| Cc1sc2nc(CSC(C)C(=O)NC3(C#N)CCCCC3)[nH]c(=O)c2c1C (centres undefined) |  | inactive: 22.4% |
| COc1ccc(N2CCN(C(=O)c3ccc4c(c3)N(Cc3cc(C)ccc3C)C(=O)c3ccccc3S4=O)CC2)cc1 (centres undefined) | inconclusive: 11.2 µM [inhibitor, partial curve, poor fit] |  |
| CC(C)(C)c1c(Cl)c(O)c(-c2ccccc2)c(=O)n1-c1ccccc1 | inconclusive: 35.5 µM [inhibitor, partial curve] |  |
| Cc1ccc(NC(=O)c2ccc3c(c2)NC(=O)CS3)nc1 | inconclusive: 35.5 µM [inhibitor, partial curve, poor fit] |  |
| COc1cccc(CNC(=O)CN2C(=O)NC(c3ccccc3)(c3ccccc3)C2=O)c1 |  | inactive: 17.1% |
| COc1ccc(OC)c(NC(=O)CCC(=O)Oc2ccc(C)cc2)c1 |  | inactive: 41.3% |
| O=C(OCc1nnc(-c2ccccc2)o1)c1ccc([N+](=O)[O-])s1 | inconclusive: 50.1 µM [inhibitor, partial curve] |  |
| CCOc1cc(/C=C2/SC(=S)NC2=O)ccc1OC(=O)c1ccco1 | inconclusive: 28.2 µM [inhibitor, partial curve] |  |
| CCOc1ccc(S(=O)(=O)Nc2ccc(C(=O)NCC(c3ccccc3)N(C)C)cc2)cc1 (centres undefined) |  | inactive: 0.882% |
| Cc1ccc(Nc2ccc(C(=O)O)cc2[N+](=O)[O-])cc1 | inconclusive: 79.4 µM [inhibitor, single point] |  |
